Experimental data from article PMC9574860, “Chemical Toolkit for PARK7: Potent, Selective, and High-Throughput” (Journal of Medicinal Chemistry, 2022).
Among all 7,900 compounds or so, about 400 (5.1%) showed an effect of 50% or more. This is one part of the list.

biological target: Parkinson's disease protein 7 (PARK7/DJ1) (human, UniProt Q99497); assay: primary screen, percent inhibition; read as competition with a fluorescent probe by fluorescence polarization; higher = more effect of the substance; settings: 100 µM
Description: The screen was conducted using the conditions as described above in 1536-well plates (Corning 3724) with a reaction volume of 8 μL per well. The compound library containing 7887 covalent fragments was purchased at Enamine Ltd. and received as 100 mM DMSO stocks in 384 well LDV Echo plates (Labcyte LP-0200). Stock solutions of 0.26 μM PARK7 and 80 nM JYQ-107 were prepared. Using a Labcyte Echo550 acoustic dispenser, 8 nL of the DMSO stock solution of the library compounds was transferred from the source plates into the empty 1536-well screening plates to obtain a 100 μM final compound concentration. Next, PARK7 (6 μL, final concentration 0.2 μM) was dispensed using a Biotek MultiflowFX liquid dispenser and incubated for 2 h, followed by dispensing the probe JYQ-107 (2 μL, final concentration 20 nM). After 2 h incubation, the FP signal was recorded on a BMG Labtech PHERAstar plate reader (λex/em 480/520 nm). The relative loss of FP signal compared with reference controls was used to calculate the remaining enzyme activity.

Sequence of Parkinson's disease protein 7 (PARK7/DJ1) (Q99497 whole entry, looked up, the tested form may be a part): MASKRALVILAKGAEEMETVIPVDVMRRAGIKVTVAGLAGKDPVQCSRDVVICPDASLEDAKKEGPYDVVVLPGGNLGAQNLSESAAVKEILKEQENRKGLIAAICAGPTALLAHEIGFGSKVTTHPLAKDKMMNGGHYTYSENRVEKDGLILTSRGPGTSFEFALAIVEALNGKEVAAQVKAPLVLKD

SMILES	Inhibition % [%]
C=CC(=O)NCCc1nnc(C)s1	8.54
Cl.N#Cc1csc(CN)n1	7.59
C=CC(=O)NCCN1CC2CCCCN2C1=O (stereo not drawn)	17.5
CN(C(=O)CCl)c1nc2ccccc2s1	3.42
C=CC(=O)N1CCCC1c1noc(CC)n1 (stereo not drawn)	9.67
COc1ccc(C(=O)CCl)c2c1C(=O)CO2	64.2
CC(NC(=O)Cn1cnc(C#N)n1)c1ccc(F)cc1 (stereo not drawn)	4.98
Cc1[nH]c(S)nc(=O)c1C1CC1	6.61
C=CC(=O)Nc1cccc2c1CCN2S(C)(=O)=O	4.97
CC(C)(C)OC(=O)N1CC(CB2OC(C)(C)C(C)(C)O2)C1	-1.81
O=C(NCC1(c2ccncc2)CC1)c1cccnc1S	5.98
C=CC(=O)NC1(C)CCC(C)CC1 (stereo not drawn)	29.1
CC(C#N)(NC(=O)CCl)C1CC1 (stereo not drawn)	23.6
C=CC(=O)NCC1c2ccccc2C(=O)N1C (stereo not drawn)	7.14
C=CC(=O)NCc1ccc2ccccc2n1	-0.809
O=C1OCCC1Sc1nc2ccccc2[nH]1 (stereo not drawn)	5.18
N#CC(=CN1CCOCC1)c1ccccc1	3.68
Cc1c(C#N)nn(-c2cccnc2)c1N	10
C=CC(=O)N1CCOC(C)(COC)C1 (stereo not drawn)	-1.67
C=CC(=O)NCCCN1CCc2ccccc2C1	10.8
Cc1ccc(S(=O)(=O)OCC2CCCO2)cc1 (stereo not drawn)	11.3

SMILES	Inhibition % [%]
N#CC(C(=O)N1CCCCC1)=C1N=C(N)c2ccccc21	10.2
CNC(=O)C(C#N)=Cc1cc(C)n(-c2cc(C)on2)c1C	4.49
C=CC(=O)N1CC(CC)(c2ccccc2)C1	4.4
C=CC(=O)N1CCN(c2c(F)cccc2OC)CC1	12
C=CC(=O)NC1CCN(CC2CCOC2)CC1 (stereo not drawn)	7.79
C=CC(=O)NC1CCc2cnn(C(C)C)c2C1 (stereo not drawn)	16
CC1NC(=O)CCC1Nc1ccc(C(F)(F)F)c(C#N)n1 (stereo not drawn)	15.4
C=CC(=O)NC1COc2c(C)cccc2C1 (stereo not drawn)	10.9
N#CCc1ccc(NC(=O)CCl)cc1	88.8
O=c1[nH]c(-c2ccc(S(=O)(=O)F)cc2)nc2sc3c(c12)CCC3	15.9
C=CC(=O)Nc1cc(Cl)c(OC)cc1OC	27.2
O=C(CCl)NNC(=O)C1COc2ccccc2O1 (stereo not drawn)	-4.99
C=CC(=O)Nc1cc(C)nn1C1CCOCC1	11.4
CC1CC(N(C)Cc2cccc(F)c2)C(=O)O1 (stereo not drawn)	10.2
C=CC(=O)NC12CC1COC2(C)C (stereo not drawn)	7.43
N#CNc1ccccc1Cl	10.4
O=C(CCl)N1CCC(c2ccccc2)=N1	90.5
O=C(CCl)N1CCN(Cc2ccc3c(c2)OCCO3)CC1	15.8
Cc1ccc(CN(C)C2CCOC2=O)cc1 (stereo not drawn)	4.59
NC(=O)Cc1ccc(C(=O)CCl)s1	97.4
O=C1CN(S(=O)(=O)C=Cc2ccccc2)CCN1	2.81

SMILES	Inhibition % [%]
N#CC(=Cc1cccc(Oc2ccccc2)c1)C(N)=O	4.25
O=C(CCl)N1CCCCC1	11.2
CC1(S(=O)(=O)NC2CN(c3ccc(F)cc3)C2=O)CC1 (stereo not drawn)	10.3
Cc1ccccc1OCC1CO1 (stereo not drawn)	13.4
COC(=O)Cc1csc(NC(=O)CCl)n1	20.2
N#Cc1nnc2ccccc2c1Cl	10.1
N#CC(=Cc1cnn(-c2ccc(Cl)cc2)c1)C(=O)O	23.2
O=c1[nH]c(S)nc2ccsc12	7.43
N#Cc1cc2c(nc1S)CCCC2	8.71
N#CC(=CC=Cc1ccccc1)C(=O)NC1CC1	0.974
C=CC(=O)NCC1COc2ccccc21 (stereo not drawn)	8.08
CC(C)(C)C1CCc2c(sc(NC(=O)CCl)c2C#N)C1 (stereo not drawn)	2.27
CC1=NOC(=O)C1CCC(=O)O (stereo not drawn)	8.64
C=CC(=O)NC(C1CCC1)C1CCC1	8.44
Cc1cc(S)nc(C)n1	41.7
Cc1ccc(C=C(C#N)c2nc3ccccc3[nH]2)o1	43.8
N#Cc1cc(C(=O)N2C[C@@H](F)C[C@H]2CO)c[nH]1	13.8
CC1CC(N2CCCC2Cn2cncn2)C(=O)O1 (stereo not drawn)	22
NCC1CCN(C(=O)C=Cc2ccc3ccccc3n2)C1 (stereo not drawn)	5.25
C=CC(=O)NCc1ccc(F)cc1	-22.1
COc1ccc(S(=O)(=O)n2ccc(C)n2)cc1	7.42

SMILES	Inhibition % [%]
COCC(C)n1c(C)cc(C=C(C#N)C(=O)O)c1C (stereo not drawn)	2.37
COc1ccc(NC(=O)CCl)cc1S(=O)(=O)N(C)C	9.41
C=CC(=O)N1CCc2cccc(F)c2C1C (stereo not drawn)	3.47
Cc1cc(C#N)nc2ccccc12	10.2
CN(c1cnn(C)c1)S(=O)(=O)c1ccccc1S(=O)(=O)F	98.1
O=C1CN=C(S)N1Cc1ccccc1Cl	7.62
COc1cccc(C(=O)N2CCCCC2C2OCCO2)c1 (stereo not drawn)	12.5
C=CC(=O)NC1CCN(c2ccccc2OC)C1 (stereo not drawn)	13.3
CCc1nccn1S(=O)(=O)c1ccc(C)c(C)c1	3.48
C=CC(=O)NC1CC(SC)C1 (stereo not drawn)	3.62
Cc1ccc(F)c(N(C#N)CCn2cncn2)c1	24.8
C=CC(=O)Nc1nc2ccc(NC(C)=O)cc2s1	7.52
O=C(C=CC1=CCCC1)N1CCCC(N2CCNC2=O)C1 (stereo not drawn)	28
COc1c(C)cc(S(=O)(=O)n2nc(C)cc2C)c(C)c1C	7.42
N#Cc1ncn(CC(=O)Nc2cc(Cl)ccc2Cl)n1	5.71
Cc1ccsc1CNC(=O)CCl	-0.856
Cl.Cn1nccc1C=CC(=O)N1CCCNCC1	8.67
C=CC(=O)N1CCOC(c2nc(C)cs2)C1 (stereo not drawn)	6.6
